Assay results: patent US6716822B2, “Therapeutic agent for ischemia which inhibits apoptosis under ischemic condition” (priority 2000, dated 2004)

Tested on: HepG2 cells
Experiment: HepG2 cell viability under low oxygen (1% v/v) condition, trypan blue exclusion
Format: cell-based, human

Row | Molecule | Enhancement effect on cell viability under hypoxic condition (in words) (HepG2 cells, 1% (v/v) oxygen) | Concentration at which cells were viable for a certain period of time | Effective concentration exerting enhancement effects on cell viability (HepG2 cells, 1% (v/v) oxygen)
1 | O=c1[nH]cc(F)c(=O)[nH]1 [5-fluorouracil] | did not show any effect | – | –
2 | CC1(C)S[C@@H]2[C@H](NC(=O)[C@H](N)c3ccc(O)cc3)C(=O)N2[C@H]1C(=O)O [amoxillin] | did not show enhancement effect | – | –
3 | CC1(C)S[C@@H]2[C@H](NC(=O)[C@H](N)c3ccccc3)C(=O)N2[C@H]1C(=O)O [ampicillin] | did not show enhancement effect | – | –
4 | O=C(N[C@H](CO)[C@H](O)c1ccc([N+](=O)[O-])cc1)C(Cl)Cl [chloramphenicol] | effective | – | –
5 | O=C(O)c1cn(C2CC2)c2cc(N3CCNCC3)c(F)cc2c1=O [ciprofloxacin] | effective | – | –
6 | C[C@@H]1C[C@@H]([C@H](O)CC2CC(=O)NC(=O)C2)C(=O)[C@@H](C)C1 [cyclohexamide] | did not show any effect | – | –
7 | CC[C@H]1OC(=O)[C@H](C)[C@@H](O[C@H]2C[C@@](C)(OC)[C@@H](O)[C@H](C)O2)[C@H](C)[C@@H](O[C@@H]2O[C@H](C)C[C@H](N(C)C)[C@H]2O)[C@](C)(O)C[C@@H](C)C(=O)[C@H](C)[C@@H](O)[C@]1(C)O [erythromycin] | not effective | – | –
8 | CN[C@@H]1[C@@H](O)[C@@H](O[C@@H]2[C@@H](O)[C@H](O[C@H]3O[C@H]([C@@H](C)O)[C@@H](O)[C@H](O)[C@H]3N)[C@@H](N)C[C@H]2N)OC[C@]1(C)O [geneticin] | – | 10 to 100 µg/mL | –
9 | COc1ccc(C[C@H](N)C(=O)N[C@H]2[C@@H](O)[C@H](n3cnc4c(N(C)C)ncnc43)O[C@@H]2CO)cc1 [puromycin] | did not show any effect | – | –
10 | COc1ccc(CN2CCNCC2)c(OC)c1OC [trimetazidine] | did not show positive results | – | –
11 | gentamicin | effective | – | 100 to 1000 µg/mL
12 | neomycin | effective | – | –
